The source of these data is PMC4336329 (PLoS ONE, 2015).

Out of some 310,000 compounds screened, about 2,200 (0.71%) showed an effect of 50% or more. The effect is printed as a negative number. The list shows a part of the results.

human ether-à-go-go-related gene (hERG) potassium channel, sequence (Q12809 whole entry, looked up): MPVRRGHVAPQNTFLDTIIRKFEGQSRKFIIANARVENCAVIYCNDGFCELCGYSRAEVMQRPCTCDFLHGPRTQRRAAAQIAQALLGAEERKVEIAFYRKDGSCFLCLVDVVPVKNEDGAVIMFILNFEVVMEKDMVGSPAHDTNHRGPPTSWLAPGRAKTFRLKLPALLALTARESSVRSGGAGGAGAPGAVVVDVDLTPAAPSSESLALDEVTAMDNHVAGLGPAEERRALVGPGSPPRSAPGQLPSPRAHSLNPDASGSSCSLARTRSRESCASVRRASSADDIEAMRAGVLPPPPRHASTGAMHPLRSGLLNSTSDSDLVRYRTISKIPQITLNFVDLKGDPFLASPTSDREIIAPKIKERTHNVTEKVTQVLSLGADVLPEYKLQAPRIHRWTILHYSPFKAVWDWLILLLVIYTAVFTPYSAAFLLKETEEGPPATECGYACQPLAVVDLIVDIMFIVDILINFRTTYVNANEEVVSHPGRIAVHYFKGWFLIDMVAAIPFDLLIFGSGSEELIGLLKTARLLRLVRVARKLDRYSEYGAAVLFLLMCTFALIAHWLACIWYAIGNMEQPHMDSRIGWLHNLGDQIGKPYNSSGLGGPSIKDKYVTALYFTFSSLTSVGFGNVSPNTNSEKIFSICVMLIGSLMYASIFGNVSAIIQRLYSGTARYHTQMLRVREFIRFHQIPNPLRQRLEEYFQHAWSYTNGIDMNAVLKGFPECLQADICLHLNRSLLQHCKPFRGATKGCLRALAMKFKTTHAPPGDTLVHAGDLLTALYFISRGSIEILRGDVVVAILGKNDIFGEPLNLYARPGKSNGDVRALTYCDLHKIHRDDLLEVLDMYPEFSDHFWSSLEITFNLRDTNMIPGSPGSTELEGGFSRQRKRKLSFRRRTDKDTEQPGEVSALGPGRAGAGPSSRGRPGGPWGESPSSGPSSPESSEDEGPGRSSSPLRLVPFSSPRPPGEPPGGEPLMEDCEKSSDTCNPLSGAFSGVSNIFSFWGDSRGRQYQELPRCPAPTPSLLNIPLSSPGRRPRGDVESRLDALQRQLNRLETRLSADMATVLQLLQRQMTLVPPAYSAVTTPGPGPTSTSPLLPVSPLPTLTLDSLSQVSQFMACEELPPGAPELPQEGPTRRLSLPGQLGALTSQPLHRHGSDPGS

This test has as its target human ether-à-go-go-related gene (hERG) potassium channel (human, UniProt Q12809). In words: primary screen, population patch clamp on CHO cells stably expressing hERG.
For `CC(C)=C1C2CCC1C1C(=O)N(NC(=O)COc3ccc(C(C)(C)C)cc3)C(=O)C21` (centres unmarked), the “hERG current change (%, negative = inhibition) at 1uM” value is given as 13.6%.

Turning to `COc1ccc(OC)c(NC(=O)CSc2nnc(-c3ccncc3)s2)c1`, the “hERG current change (%, negative = inhibition) at 1uM” value was determined as 16.5%.

Take `Cc1ccccc1-c1nc(CN2CCC(C(=O)NCCCN3CC(C)CC(C)C3)CC2)c(C)o1` (centres unmarked): the “hERG current change (%, negative = inhibition) at 1uM” value stood at 1.36%.

In the case of `Cc1ccc(-c2nnc(OCCN3CCOCC3)c3ccccc23)cc1`, the “hERG current change (%, negative = inhibition) at 1uM” value is -3.96%.

On to `COc1ccc2nc(/N=C(\N)NC(=O)Nc3ccccc3)nc(C)c2c1`, for which the “hERG current change (%, negative = inhibition) at 1uM” value is recorded as -11.5%.

Turning to `CCNC(=O)/C(=C\c1ccc2c(c1)OCO2)NC(=O)c1ccc(Br)cc1`, the “hERG current change (%, negative = inhibition) at 1uM” value is -48.9%.

Turning to `COc1ccc(OC)c(S(=O)(=O)Nc2cccc(F)c2)c1`, the “hERG current change (%, negative = inhibition) at 1uM” value is listed as -1.72%.

Take `COC(=O)c1ccccc1OP1(=O)COc2ccccc2OC1`: the “hERG current change (%, negative = inhibition) at 1uM” value was determined as 17.6%.

For the molecule `S=c1[nH]nc(CCc2ccc(Cl)cc2)o1`, the “hERG current change (%, negative = inhibition) at 1uM” value was -3.05%.

`Cc1c(C(=O)Nc2ccc3c(c2)OCCO3)sc2nc(-c3ccccc3)cn12`: the “hERG current change (%, negative = inhibition) at 1uM” value worked out at 2.95%.

Consider `CCOC(=O)c1ccccc1NC(=O)/C=C/c1cc(OC)c(OC)c(OC)c1`, for which the “hERG current change (%, negative = inhibition) at 1uM” value is reported as -11.5%.

Regarding `COc1cc(C2c3c(oc4ccccc4c3=O)C(=O)N2c2nccs2)ccc1O` (centres unmarked), the “hERG current change (%, negative = inhibition) at 1uM” value was 8.54%.

Regarding `CNS(=O)(=O)c1cc(NC(C)=O)c(C)cc1C`, the “hERG current change (%, negative = inhibition) at 1uM” value was determined as 9.56%.

As to `C=CCn1c(O)c(/C(C)=N/N2CCCCC2)c(=O)[nH]c1=O`, the “hERG current change (%, negative = inhibition) at 1uM” value turned out to be 9.13%.

Consider `CN(CC(=O)Nc1cccc(F)c1)C(=O)c1cccc(-n2cccc2)c1`, for which the “hERG current change (%, negative = inhibition) at 1uM” value was -2.42%.

Take `Cc1cc(C(=O)COC(=O)c2ccc(Cl)c(S(N)(=O)=O)c2)c(C)n1CC1CCCO1` (centres unmarked): the “hERG current change (%, negative = inhibition) at 1uM” value was determined as 8.68%.

As for `COc1ccc(/C=C/C(=O)c2ccccn2)cc1`, the “hERG current change (%, negative = inhibition) at 1uM” value came to 18%.

Take `COc1ccc(CN2CCN(S(=O)(=O)c3ccc(F)cc3)CC2)c(OC)c1OC.O=C(O)C(=O)O`: the “hERG current change (%, negative = inhibition) at 1uM” value is on record as -4.26%.

With `O=C(Nc1ccc(Br)cc1)c1cccc(S(=O)(=O)Nc2cnc3ccccc3c2)c1`, the “hERG current change (%, negative = inhibition) at 1uM” value was 17%.

Consider `N/C(=N\OC(=O)c1ccc(Cl)cc1)c1[nH]ncc1Br`, for which the “hERG current change (%, negative = inhibition) at 1uM” value stood at 8.21%.

As to `C#CCOCCOCCOCCNc1nc(N2CCOCC2)nc(N2CCN(C(=O)CCCCCCCCCCNC(=O)[C@H](CO)n3cc(CCCCCN)nn3)CC2)n1`, the “hERG current change (%, negative = inhibition) at 1uM” value is reported as 10.7%.

Turning to `Cc1ccc(C(=O)Nc2nnc(NC(=S)Nc3ccccc3)s2)cc1`, the “hERG current change (%, negative = inhibition) at 1uM” value turned out to be 7.27%.

As to `N/C(=N\OC(=O)CCCC(=O)O)c1ncc(C(F)(F)F)cc1Cl`, the “hERG current change (%, negative = inhibition) at 1uM” value is listed as 8.03%.

`CC(C)OCCCNC(=O)Cn1nc(-c2ccccc2)ccc1=O`: the “hERG current change (%, negative = inhibition) at 1uM” value is listed as -3.14%.

As for `FC(F)(F)c1cc(CCN2CCNC[C@H]2Cc2cccc3ccccc23)cc(C(F)(F)F)c1`, the “hERG current change (%, negative = inhibition) at 1uM” value came to 4.73%.

For the molecule `COc1ccc(C(=O)NC(=S)Nc2cccc(Cl)c2N2CCOCC2)cc1[N+](=O)[O-]`, the “hERG current change (%, negative = inhibition) at 1uM” value was 13.1%.

`C/C=C1\COC(C(=O)NCc2ccccc2)(C(F)(F)F)C=C1C=C1CCCCC1` (centres unmarked): the “hERG current change (%, negative = inhibition) at 1uM” value is listed as 21.7%.

As to `CCN(CC)CCOC(=O)c1ccc(NC(=S)NC(=O)/C=C/c2ccco2)cc1`, the “hERG current change (%, negative = inhibition) at 1uM” value came out at 11.9%.

For the molecule `CC(C)CC(N=C1NC(C)(C)Cc2ccccc21)C(=O)O` (centres unmarked), the “hERG current change (%, negative = inhibition) at 1uM” value stood at 3.02%.

Take `Cc1ccccc1N(C(=O)c1cccs1)c1nc2ccccc2s1`: the “hERG current change (%, negative = inhibition) at 1uM” value is 8.42%.

As for `Cc1cccc(S(=O)(=O)N2CCN(Cc3ccc4c(c3)OCO4)CC2)c1`, the “hERG current change (%, negative = inhibition) at 1uM” value is reported as 6.56%.

As to `O=C(COC(=O)Cc1ccc(F)cc1)NC1CCCC1`, the “hERG current change (%, negative = inhibition) at 1uM” value came to 7.98%.

Turning to `Cc1cccc(N(CC(O)CON=C2c3ccccc3-c3ccccc32)S(C)(=O)=O)c1` (centres unmarked), the “hERG current change (%, negative = inhibition) at 1uM” value stood at 11.6%.

In the case of `O=C(Nc1ccc(OC(F)F)c(Cl)c1)Nc1ccc2c(c1)OCO2`, the “hERG current change (%, negative = inhibition) at 1uM” value stood at 23.7%.

For `Cc1ccc(C(=O)NC(=S)NCC(=O)c2ccccc2)cc1`, the “hERG current change (%, negative = inhibition) at 1uM” value is given as 3.61%.

With `CCN(CC(=O)Nc1c(F)cccc1F)C(=O)C1Cc2ccccc2CN1S(=O)(=O)CC` (centres unmarked), the “hERG current change (%, negative = inhibition) at 1uM” value stood at 1.6%.

Consider `CCCc1cc(N2CCCC(C(=O)Nc3c(OC)cccc3OC)C2)n2ncnc2n1` (centres unmarked), for which the “hERG current change (%, negative = inhibition) at 1uM” value came out at 1.56%.

On to `CCOC(=O)c1cc2occc2n1CC(=O)NCCOC`, for which the “hERG current change (%, negative = inhibition) at 1uM” value is listed as 12.4%.

Take `O=C(NCc1cccs1)c1cc2c(s1)-c1ccccc1OC2`: the “hERG current change (%, negative = inhibition) at 1uM” value came to 5.22%.

As for `O=C(CN1C(=O)c2cccc3cccc(c23)C1=O)N1CCCCCC1`, the “hERG current change (%, negative = inhibition) at 1uM” value was determined as 16.7%.

As for `O=C(O)c1ccc(NC(=O)c2ccc3c(c2)C(=O)N(CC2CCCO2)C3=O)cc1` (centres unmarked), the “hERG current change (%, negative = inhibition) at 1uM” value stood at 13.3%.

Turning to `CC(NC(=O)CNC(=O)c1sc2ccccc2c1Cl)c1ccc(S(N)(=O)=O)cc1` (centres unmarked), the “hERG current change (%, negative = inhibition) at 1uM” value was -31.4%.

`O=C(Cc1c[nH]c2ccccc12)N/N=C/c1cccc(F)c1`: the “hERG current change (%, negative = inhibition) at 1uM” value is listed as 12.1%.

For the molecule `Cc1nc2sccn2c(=O)c1Br`, the “hERG current change (%, negative = inhibition) at 1uM” value was determined as 17.8%.
